Source: the supplement of paper PMC3334620
The full ranking holds about 33,000 sequences; the median of “E-score (-0.5 to 0.5)” is about -0.012, and the highest 2% start at about 0.27. The list shows a part of the results.

The sequences below were run against T1, Vhr1 (UniProt P40522) (assay: PBM E-score (8-mer binding enrichment) (E-score (-0.5 to 0.5)); higher = stronger / more preferred TF binding; most listed sequences are background and not binding sites). Conditions: protein concentration: 200 nM; construct: GST-full length.
T1 sequence: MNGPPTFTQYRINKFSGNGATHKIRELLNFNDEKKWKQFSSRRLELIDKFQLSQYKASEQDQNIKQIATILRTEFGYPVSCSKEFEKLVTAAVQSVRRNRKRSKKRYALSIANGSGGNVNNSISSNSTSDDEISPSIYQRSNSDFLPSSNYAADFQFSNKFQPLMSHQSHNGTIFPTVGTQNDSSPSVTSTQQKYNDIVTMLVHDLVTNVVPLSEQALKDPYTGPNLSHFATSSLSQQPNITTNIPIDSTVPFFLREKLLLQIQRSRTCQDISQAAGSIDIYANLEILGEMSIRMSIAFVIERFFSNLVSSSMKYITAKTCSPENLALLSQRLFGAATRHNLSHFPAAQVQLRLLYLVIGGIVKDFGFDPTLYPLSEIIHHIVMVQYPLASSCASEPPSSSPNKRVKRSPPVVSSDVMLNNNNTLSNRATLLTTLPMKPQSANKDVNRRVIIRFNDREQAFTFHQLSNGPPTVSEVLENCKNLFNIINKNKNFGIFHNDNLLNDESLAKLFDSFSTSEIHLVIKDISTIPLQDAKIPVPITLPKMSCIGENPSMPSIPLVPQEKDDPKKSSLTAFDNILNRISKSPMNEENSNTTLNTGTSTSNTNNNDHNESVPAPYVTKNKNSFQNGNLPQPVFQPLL
In short: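 Each ungapped eight-base word and its reverse complement, pooled, received an E-score from the Universal PBM Analysis Suite. Underlying scans, normalised with masliner, recorded fluorescent anti-GST bound to GST-tagged yeast transcription factors. These were applied at about 100-200 nM to universal all-10-mer Agilent arrays double-stranded by primer extension.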

Sequence	PBM E-score
CGTAATAG	-0.00905
ATAGTCTA	0.0473
TCCGTCCA	0.119
CCTAATTA	-0.252
CCCCCATC	-0.0828
GTCCTTAA	-0.00154
AATCCGGC	0.0388
CTCATTTC	-0.101
CGTGAACA	0.0492
AATTAGGC	-0.0883
ATATGTGC	0.0441
ATTTGCCC	-0.0965
ACTGGTAC	0.15
CGTCATGA	0.267
ATACCGAG	0.106
CATAGAGG	-0.0844
GCGGGTAA	0.00221
AGCATTAT	0.0302
GGCCGTAC	0.065
ACCCGAAA	-0.0756
ACGAGGTC	0.0874
GGGTATTA	0.055
ATAGCGTC	-0.163
GCCACGCC	-0.214
CACTTCGA	-0.00879

Sequence	PBM E-score
CTACAGGC	-0.126
GGTTGTAC	0.0636
CAAAAATA	-0.0959
ATGAACGC	0.0841
GTCGAAAC	0.0367
TCCTATAA	0.0419
CAATAATG	-0.0412
TGAAGAAA	-0.186
GAAGACAA	-0.039
GCCTAGAA	-0.339
CTATCCGA	0.0662
CAGACTGG	0.0405
CCACATCC	0.17
CCAAATCC	-0.22
ACATTTCC	0.0349
GCGAGGGA	-0.0577
ACATGTTG	0.116
GATTCAGC	0.149
AGTTGCAC	0.00832
ATGTTAGC	-0.189
ACTCAATC	0.293
TAGTTAGA	0.0557
CAGGTGCG	0.051
AGTCGTGC	0.236
AGGTCCCC	-0.186

Sequence	PBM E-score
ACTGGCTC	0.0698
AATCAACG	0.0373
ACGTTCGC	-0.141
AGAACGGC	0.0802
CCATGAAC	0.241
TATGGACA	-0.156
AATGTCCC	-0.0256
AGACCGGC	-0.0756
AATCCGAA	-0.144
GCATTTCA	-0.155
GATATGGA	0.22
AGGTTCGG	-0.157
AGGCGACA	-0.0955
ATACATTA	0.128
ATCCGTGG	-0.0311
AAGCTGGC	-0.163
CAGGGAAA	-0.00931
GCGACCAC	0.0742
AGAACCGA	0.02
GTACCCAA	0.122
CACATCTA	0.0134
GACTAGTC	0.095
AGTATACC	0.112
CAGAACCC	0.0109
CTGCCCTC	-0.089

Sequence	PBM E-score
CCTCACAC	-0.0104
ACTACTGC	0.0737
CGAGCTCC	-0.102
GTTCCTAA	-0.0859
CCAACTCA	0.216
ACATTGAC	0.0886
GCATGAGA	0.143
GGCACAAC	-0.00416
CAAAGGTA	-0.172
TGTTCCAA	-0.0908
CCGCAGCG	0.0402
GAACCGTA	-0.0214
GCGTAAAC	0.0186
CTCGCTGA	-0.206
ACTTTGGC	-0.115
ACTATCGA	0.222
ATAAAACG	0.0395
AGGGGTGA	-0.0936
CAAACGGG	-0.0299
TACAGGAA	0.0191
CTACCTTA	0.0237
ATGATTCG	0.412
GAGTTCTA	-0.247
AGCGTGAT	0.185
GTACGTCA	-0.109

Sequence	PBM E-score
CCTTTCAC	-0.206
ATTGGCCG	-0.13
CAACGCTC	-0.0105
CAGAGGAG	-0.0542
CCTTGGCC	-0.278
GCATATTA	0.0513
GCGTTTCC	-0.143
AGTCGTAG	0.217
AGGCGAAG	-0.12
CCGCCCAA	0.0168
ATTTGCAG	-0.172
GCGTTCCA	-0.169
CAGACGCC	-0.172
GCGCGGGA	0.167
GCGCCACC	0.02
ATTTCATC	0.043
CAGGAATC	0.313
TATAATGA	0.145
AGAACCAG	-0.16
GGTTCAAA	0.0277
ATTAAGTG	0.00765
CGCACCAG	0.302
CGTATCCC	-0.158
GTTTTCTA	-0.185
ATAATCCG	0.00174

Sequence	PBM E-score
GCCCTGTA	-0.0133
AGTACTTC	0.116
GAAAAAGA	-0.204
GCAAAAAA	-0.195
ATTCCGGA	0.174
GCGTTACA	-0.057
ATCTGTGG	0.0183
GCAGCAGA	-0.00414
ACACCGCG	-0.0178
CCTGTGAG	0.106
CCTTATCA	-0.198
GAACCGGC	-0.0873
ACATTCTC	0.0153
ACCCAGAC	0.104
CGTGCGGA	0.00699
AATCCGTG	-0.05
CAGGAGAA	0.00491
GGTACACA	0.204
CACAGATG	-0.069
CTAGGTTC	-0.0959
CAGGGCAG	0.011
AGTATTCG	-0.0178
CAAAGTTC	-0.0789
CTTATTAA	-0.0187
TACTAACA	0.145

Sequence	PBM E-score
CGGCGGCC	-0.142
CATTGTGC	-0.0223
GCCCATCC	0.101
AATCGGCT	0.0852
AAACATCG	0.0376
CCTAAATC	0.00215
CATAAAAA	-0.15
GGATTCAA	-0.0312
CAGCATAA	0.0735
ACATTGCT	-0.0486
TGGGGAAA	0.0155
CGGTCCTA	-0.246
AATTCTAA	-0.0726
CTTGTTGA	0.107
AGTAGACT	-0.0463
GAATACTA	0.178
ATAGGTTA	0.0642
GACGTTCC	-0.294
TAGCCACA	0.023
TCTTCCAA	-0.19
GACGAGGC	-0.11
AACACCTT	-0.0237
